# Data: the supplement of paper PMC12632987
# Whole data set: some 4,500 sequences, median “median log2 fold change of GCK-ALFA target abundance (FLAG IP / Myc IP barcode read proportion)” near 0.078, cut for the lowest 2% near -0.6. This is one part of the list.
# B1: GBRAP_160_4412 (protein)
# chain: EELIKEVEELFEELRELVLELLEEGEREEAIAAVRVGAGEILLYVDESEEVSDEAEEEVDEVLDELVETVEENRDMSPEEVEELIEEAREKVIEILKKHL
# B2: GBRAP_160_4310 (protein)
# chain: KEELEALKKEVKEIFEEAKKLIEGETKEQQKAIVKVALGEVILLAFESPAITEEAEEKIAEIADEAIATLDANPDLTTEEIKKLLEEAEKKILELIEKLK
# B3: GBRAP_184_5282 (protein)
# chain: TVRHVEIEAETAAEAIAALRKAAAEARAAGAKLRLTILLKNADIDGILALFALLAELRAAGVIESAVLGIENEKTEEEIDTILAAADAAGVRVVIAIPDE
# B4: GBRAP_125_3101 (protein)
# chain: MEEELLEALKRFALALGFSEEDAEEAAELAKKFSLKQTLIALLLAEGEEELAELVEKLTEEEAKEVLLKLDEYLKKNPNASKEEVLKKFKELVEEALKAS
# B5: GBRAP_160_4746 (protein)
# chain: SEELKKLKKEIEEIFEEGIEILKEVPKEEALTVVRGTMGEVLMEVFSSDAASDELEEEIGKILDEAEKKAEENKNGSVEEYIKILEDARKKIEELLNKKI
# B6: GBRAP_160_4471 (protein)
# chain: KEKVEAAVEDLRRSVDEELERTADESPEQIATAAAVEVGSHLLEWSEAGTITDEQEDILAKAEDEILALGRTEPDASPAETIERIREIVDAAAAAILAAA
# B7: GBRAP_184_5061 (protein)
# chain: KVYERTIEVRNVEEARAKMAALAEEVKDHKGDLVVMLKMERFDREIVRAVLEGLGAIKKAGYVSSVTLGIDAETTEEEADFAVALADEQGVNVTLALSEE
# B8: GBRAP_160_4379 (protein)
# chain: SEELKELKEEVKKLKEEFKEEAKDLSTAEVRTLAIGVLSEIAALVWSNEAVSEETKDKIMKIIDDAIAKIRANADASPEEIVAIVTEAFDKIIELIEKEE
# B9: GBRAP_52_5984 (protein)
# chain: MREEMREHARRLVELELAGREEEARALLERLAAELSEEELEEIARELAELAKTASPEEIDAIVRVAELLEDVWLAAGRDEALADDGLARVAAAAYDALQA
# B10: GBRAP_160_4011 (protein)
# chain: GEEIEELKKEIKEIFEELKEWIKGETPEERLTLVKGAMGEVLELVFSSPAVSDETEDKIAEILDETEKEFEKNKNATLEEWYKLIDETLEKIFELLDKDE
# B11: GBRAP_52_6132 (protein)
# chain: MEERMRAIAEELVALAAAGDEEGLRKRVREIARELSDEEIIELARELGRMLLEADEETAELILRVAELLIDELPKAGRSEETVSEVEGIIARAGYEKELK
# B12: GBRAP_184_5288 (protein)
# chain: MVEKVVIEAENAEEAIEKIKEEAEKAKKEGVKLEIYLFLKNVDVEGFKKIMELLKKYKEEGIIKDAIVDILDERTEEETDEFVKIADEAGVKLVLALSDE
# B13: GBRAP_160_4088 (protein)
# chain: MEKVKKLIEEIKELAEEAKEMIEGESIEQRATIVRGLGGDVIMLLFESGVVSDEVEDFADEEFDALVATILANPDLTEAEIKALLDEVVEAVIKKIKAEA
# B14: GBRAP_14_3807 (protein)
# chain: MEEKKKAITDNTDELKEIVTEILKDAPQEVRDAVLAAIEDFRKTVIENNLNPDEIAELGDELVKKVEEITKDLPADVRARVLAAVRVHTGEIILEVEELE
# B15: GBRAP_80_6764 (protein)
# chain: MRERLEAALAELGELLPELAERLRETVERLLELGVPVELLLRLLEALVELAKLDKERAREILEEFIEEANEAIEAGDREEVEALVVDAESDALLEVEELE
# B16: GBRAP_83_6886 (protein)
# chain: KEKITVAGPGDRIEEMADIVIDLTKEEGYEVTVEILARPEELEKVKEGVKRLAEAGVNTEIVIYLEGATEEEAEELKEEIEEIAEEYGVDIEVEVILEEP
# B17: GBRAP_128_3413 (protein)
# chain: SREETVARARELLEAMLTADEETQRELARELAELILNSDLETAEAIAEVILEMLPRFTAEQLDILADELEKQRPLFTPEKQNLVAEVIVEALNRAEELEE
# B18: GBRAP_150_3899 (protein)
# chain: SWEEALLLAETALDLVEGIRDGEYSLLPHAIKLLKELVEELKEIDEELAKKAKKALELLLKAEKLIKAGGDEKEIQKLIDEAIKILEELVKEIKKKIKEK
# B19: GBRAP_177_5017 (protein)
# chain: MTLEELRAMIEDPNTTAEEVFKALIEAVKDLSAEEVIELLAEALNTKELDEESYKEAAKLILALEKEQGVSVATVFGYLIEHVDAEKVEKILEAYAEEEE
# B20: GBRAP_125_3116 (protein)
# chain: GMDATLENLATLMRALGFSEEDIEEALKLAREFGIKNTMIAFFLALGEEELADLAAQLSEEAVKEALARVAAYIAAHPDLTPEEVIAKTKEVLEEALAKQ
# B21: GBRAP_160_4195 (protein)
# chain: SAEIEALKKEIKEIAEEAIKMIEGQTYEERLVIVEGALGQIVLLLSESPVVSDEAEDEAAEIADEAIAYLRANPDLTEEEIKKLIKETTEKIIEVLDEAD
# B22: GBRAP_52_5922 (protein)
# chain: SAAAAEAAARAILDAALAGDEAAMKALIEELVKTFSDEEIETVIEALARLIAARGPEHYDLFAKIMDLLEDAAEKAGRDVELIQYAIARGFGILYDAEQA
# B23: GBRAP_52_6274 (protein)
# chain: MEEEAEELANEFIEVALNGTEEEIEAFAKELVATKSQELIAKVLEIVVEKAKSLNAEEIEKLLEAVLILEEELAEAGKDTLPAEDAAAELAKLHEEKLKA
# B24: GBRAP_35_5505 (protein)
# chain: SSMETEVEMLVATIEDAVLAVPDLPVEQAAAIANSLIKSAEELAKEAKDDPEGLERLLKAMEALLKAIKAHYGDDPLAQETAKKIEELIKELKKLLKEAK
# B25: GBRAP_78_6659 (protein)
# chain: EVEELLDKALELARELRKLAKGLSPEIQNLAAEVEVLVGEALYLYEVENASKEELIKQAEEALKKAEELKKKLEGVDEEALKAAEKLIKALEELIKALKK
# B26: GBRAP_80_6793 (protein)
# chain: AEERLRRALEEIERLDPELAERVRRIIELAREMGVPLEALADYAEAIAELLRLDPEEARRLVEELEELLEEEREEGNAEEAEAVVRVYAGEALLEVEELE
# B27: GBRAP_26_5433 (protein)
# chain: IEEILDEMRDRLEAAADELLDPELAAALKAEIDTLIYELEEKIEEENLSLEEIEKLLEEMVKELVEAAKTLGVPEEKIEKLRKAFEEAAEEALKRIKEER
# B28: GBRAP_83_6987 (protein)
# chain: AEKVTVAALGDRIKEAVEIAIDLTKEEGKEVSLEIIADKEDWPEVLEGVRRLAEAGIEAEIDVSVKGATPEEAKEMLEELKKIAKEHGSNFKIEVHVIEE
# B29: GBRAP_80_6759 (protein)
# chain: SLAELEAALAELEALDPELGARLRAVLERALAAGVSVEVAAETVRALVELYKLDPEKARELAERLIAELEAALAAGDVAAAEAALIDAESDALVEVEELE
# Target: GABARAP, O95166
# Assay: median log2 fold change of GCK-ALFA target abundance (FLAG IP / Myc IP barcode read proportion) (log2 ratio); each designed protein is fused to an ALFA-tag nanobody in HEK293 cells to bring the named protein to FLAG-tagged glucokinase (GCK); Myc marks an untargeted standard; higher = target protein stabilised (more abundant)
# Conditions: target protein: 3xFLAG-MCP-GCK-ALFA reporter; HEK293 landing pad (RPLP)
# In short: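 Binders fused to an ALFA nanobody were recombined as a library into HEK293 landing-pad cells, which were induced with 2 μg mL^−1 doxycycline and then transfected to express a FLAG-tagged target and a Myc-tagged standard. After 48 h, circular RNA barcodes recovered by anti-FLAG and anti-Myc immunoprecipitation of lysates were reverse transcribed, amplified and sequenced. Each binder's target abundance is the median log2 ratio of FLAG to Myc barcode read proportions, from barcodes present at ≥10^−7 in both replicates, binders carrying ≥3 barcodes per replicate, a 10^−6 pseudocount and pooled replicates.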
# Chain of GABARAP, O95166 (O95166 whole entry, the tested form may be a part): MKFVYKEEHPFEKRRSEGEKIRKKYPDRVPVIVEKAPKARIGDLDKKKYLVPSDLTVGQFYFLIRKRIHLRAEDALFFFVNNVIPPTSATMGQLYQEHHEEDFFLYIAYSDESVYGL
row,Binder,median log2 fold change
1,B1,-0.257
2,B2,-0.615
3,B3,-0.157
4,B4,-0.382
5,B5,-0.196
6,B6,0.147
7,B7,0.317
8,B8,0.234
9,B9,-0.0313
10,B10,-0.0537
11,B11,0.123
12,B12,0.084
13,B13,-0.086
14,B14,0.206
15,B15,-0.163
16,B16,0.126
17,B17,0.188
18,B18,0.192
19,B19,0.0718
20,B20,-0.314
21,B21,-0.037
22,B22,0.0874
23,B23,0.0521
24,B24,0.317
25,B25,0.0581
26,B26,-0.394
27,B27,0.22
28,B28,0.146
29,B29,0.0898
